Hit rate of the full screen: of about 51,000 compounds, about 600 (1.2%) were called active. Inconclusive means that the source gave no clear call. Such entries were picked first, then a sample of the others. Rule as the data show it: active = potency below about 11 µM; inconclusive = mostly about 12 µM to 25 µM; inactive = weaker than that;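 the screen sought inhibitors and activators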. Potencies of inconclusive entries are left out as doubtful fits.
Tested on: pyruvate kinase (Bacillus stearothermophilus)
Assay: Pyruvate Kinase
Conditions: purified pyruvate kinase, luminescence ATP production; ribose 5-phosphate activator present at AC10
Summary of the method: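 Activity measured as ATP generation from ADP and PEP using luciferase-coupled luminescence; 10 nM enzyme, 2 h, room temperature, with sub-maximal ribose 5-phosphate to reveal potentiators.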
Potency is read from the fitted curve at half-maximal effect.

Compound	Potency
CN1CCN(c2nc3c(c(=O)[nH]c(=O)n3C)n2CCOc2ccccc2)CC1	inactive: > 57 µM
O=C(CN1CCOCC1)n1c2ccccc2c2ccccc21	inconclusive [decreasing]
COc1ccccc1-c1nc(C#N)c(N2CCc3ccccc3C2)o1	inconclusive [decreasing]
Cc1cc(S(=O)(=O)Nc2ccccc2C(=O)O)ccc1Cl	inconclusive [increasing]
COc1ccc(-n2nc(C(=O)NCC(=O)N3CCN(c4ccccn4)CC3)c3ccccc3c2=O)cc1	active: 8.23 µM
Cc1ccnc2ccc(-c3nc4ccccc4o3)cc12	inconclusive [decreasing]
CC(C)(C)OC(=O)N1CCC[C@H]1c1nnc(SCc2c(Cl)cccc2Cl)o1	inconclusive [increasing]
COc1ccccc1OCC(=O)OCC(=O)Nc1ncc(Cl)cc1Cl	inconclusive [increasing]
COc1cccc(CN2CCN(C(=O)c3cccc4ccccc34)CC2)c1OC	inconclusive [increasing]
Brc1ccc(-c2nc3ccccc3s2)s1	inconclusive [decreasing]
Cc1ccc(C(=O)N2CCCCCC2)cc1Br	inconclusive [increasing]
CCOC(=O)c1cc2c(=O)n3cccc(C)c3nc2n(CCc2ccccc2)c1=N	inactive: > 25.6 µM
COc1ccc(OC)c(CN2CCN(C(=O)c3cccc4ccccc34)CC2)c1	active: 7.4 µM
CC1(C)[N+]([O-])=C2C(=[N+]([O-])C1(C)C)c1ccccc1/C2=N\O	inconclusive [increasing]
Brc1ccccc1C1=Nn2c(nnc2-c2ccccc2)SC1	inconclusive [increasing]
CC1=C/C(=C/N(C)c2ccccc2)C(=O)S1	inactive: > 57 µM
CC(=O)Nc1c2c3c(cccc3n(C)c1=O)C(=O)c1ccccc1-2	inconclusive [decreasing]
O=C(Nc1ccc(-c2nc3ccccc3o2)cc1)C1CCCO1 (stereo unspecified)	active: 6.3 µM
O=C1Cn2c(nc3ccccc32)-c2ccccc2N1	inactive: > 11.4 µM
COC(=O)c1sc2ccccc2c1C(=O)OC	inactive: > 57 µM
COC(=O)c1ccc2c(c1)NC(=O)C(N1CCCCC1)S2 (stereo unspecified)	inconclusive [increasing]

Compound	Potency
c1ccc2c(-n3cnnn3)cccc2c1	inconclusive [increasing]
COc1ccc(NC(=O)c2oc3ccccc3c2NC(=O)c2ccco2)cc1	inconclusive [decreasing]
CCC(CC)C(=O)NCCc1cc2c(OC)ccc(OC)c2[nH]c1=O	inconclusive [decreasing]
Cc1ccc(C)c(NC(=O)CS(=O)(=O)c2c[nH]c3ccccc23)c1	inconclusive [increasing]
Cc1ccc2c(c1)C(N1CCCC1=O)CC(c1ccco1)N2 (stereo unspecified)	inconclusive [decreasing]
O=c1cc(-c2ccccc2)[nH]c2nc3ccccc3n12	active: 1.02 µM
COc1ccccc1C(OC(=O)c1cccs1)C(=O)NCc1ccco1 (stereo unspecified)	inconclusive [increasing]
CN(CC(=O)NCc1cccs1)S(=O)(=O)c1cccc2nsnc12	inconclusive [increasing]
O=C(c1ccc(COc2c(F)c(F)c(F)c(F)c2F)o1)N1CCOCC1	inactive: > 57 µM
CCOC(=O)c1nn(-c2ccc3c(c2)CCN3C(C)=O)cc1O	active: 9.85 µM
Cc1ccc(-c2nc3cc(NC(=O)C(C)C)ccc3o2)cc1C	active: 1.74 µM
Nn1c(-c2cccs2)nc2sc3c(c2c1=O)CCCC3	inconclusive [decreasing]
O=C(c1ccc(Cl)cc1Cl)C1(n2cncn2)Oc2ccccc2C1O (stereo unspecified)	inconclusive [increasing]
CCOC(=O)c1oc2ccccc2c1CSc1nnc(-c2ccco2)o1	inactive: > 57 µM
CC1Cc2ccccc2N1CC(=O)NC(=O)NCc1ccco1 (stereo unspecified)	inconclusive [increasing]
COc1ccccc1C(c1nnnn1CS(=O)(=O)c1ccc(C)cc1)N1CCSCC1 (stereo unspecified)	inconclusive [increasing]
Cc1ccc(-c2csc(N(CCCN3CCOCC3)C(=O)c3ccco3)n2)cc1	inconclusive [decreasing]
COCC(=O)Nc1nc2n(n1)C(c1ccc(OC)cc1)CC(c1ccc(OC)cc1)N2 (stereo unspecified)	inactive: > 57 µM
O=C1c2ccccc2C(=O)N1Cc1nn2c(-c3ccc(Cl)cc3)nnc2s1	inactive: > 57 µM
O=C(CSc1ncc(-c2ccccc2)n1CC1CCCO1)N1CCCCC1 (stereo unspecified)	inactive: > 57 µM
COc1ccc(OC)c(-n2c(CN3CCC(C(N)=O)CC3)nc3ccccc3c2=O)c1	inconclusive [increasing]

Compound	Potency
O=C(CCn1nnc2ccccc21)N1CCC(O)(c2cccc(F)c2)CC1	inactive: > 57 µM
Cc1ccc(S(=O)(=O)NCCSc2nnc(N)s2)cc1	inconclusive [increasing]
O=C(C1CCN(S(=O)(=O)c2cccc3nsnc23)CC1)N1CCn2c1nc1ccccc12	inconclusive [increasing]
CCOC(=O)N1CCN(S(=O)(=O)c2cccc3ccc(C)nc23)CC1	inconclusive [increasing]
COc1ccc(CCNS(=O)(=O)c2cccc3nsnc23)cc1OC	inconclusive [increasing]
O=C(Nc1ccc2nc(-c3ccc(Br)o3)[nH]c2c1)c1cccs1	inconclusive [decreasing]
COc1ccc(CCNc2c(N)n(Cc3ccccc3)c(=O)[nH]c2=O)cc1OC	inactive: > 57 µM
O=C(OCc1c(Cl)cccc1Cl)c1cnccn1	active: 4.74 µM
COc1cccc2sc(N(C)c3ccccc3)nc12	active: 8.14 µM
C=CCn1c(SCc2ccc3nonc3c2)nnc1-c1cccs1	inconclusive [increasing]
Nc1nc2n(n1)C(c1ccco1)CC(c1ccc(Cl)c(Cl)c1)N2 (stereo unspecified)	inconclusive [increasing]
COc1ccc(C(=O)Nc2ccc3c(c2)nc2n3CCSC2)cc1	inconclusive [decreasing]
Cc1occc1C(=O)Nc1cccc2ccccc12	inactive
CC(=O)N1CCN(CC(=O)Nc2c(Cl)cccc2Cl)CC1	inconclusive [increasing]
CC(C)(Oc1cccc2ccccc12)C(=O)O	inconclusive [increasing]
O=S(=O)(NC1CCCc2ccccc21)c1cnc[nH]1 (stereo unspecified)	inconclusive [increasing]
O=C(CS(=O)(=O)Cc1ccccc1)Nc1nc2c(s1)CCCC2	inactive: > 57 µM
CN(Cc1cccs1)C(=O)COc1ccc(-c2nnco2)cc1	inactive: > 57 µM
Cc1cc2n(n1)C(c1ccsc1)Nc1ccccc1-2 (stereo unspecified)	inconclusive [decreasing]
O=C(CN1CCN(S(=O)(=O)c2cc(Cl)ccc2Cl)CC1)Nc1ccc2c(c1)OCCO2	active: 4.74 µM
COc1cc(S(=O)(=O)N2CCC(C(N)=O)CC2)c(C)cc1C	inconclusive [increasing]

Compound	Potency
O=Nc1c2nc3ccccc3n(O)c-2c2ccccc12	active: 7.25 µM
CCn1nc(C(=O)OCC(=O)c2ccc3c(c2)OCCO3)c2ccccc2c1=O	inconclusive [decreasing]
Cc1ccc(S(=O)(=O)C(CCC(=O)N2CCOCC2)S(=O)(=O)c2ccc(C)cc2)cc1	inconclusive [increasing]
COc1cccc(N2CC(O)=C(c3nc4ccccc4c(=O)[nH]3)C2=N)c1	active: 2.88 µM
Cc1cc2nc(-c3ccc(SCC(=O)N4CCOCC4)nc3)[nH]c2cc1C	active: 2.11 µM
Cc1ccc(O)c(C(=O)c2cnc3c(c2)CN(CCC(C)C)C(=O)N3)c1	inactive: > 57 µM
Cc1cc2n(n1)C(c1ccc(N(C)C)cc1)Nc1ccccc1-2 (stereo unspecified)	inconclusive [decreasing]
Cc1cc(C)c(OCC(=O)Nc2nnn(C)n2)c(Br)c1	inconclusive [increasing]
CNc1ccccc1C(C)(C)c1cc(-c2ccco2)n[nH]1	inconclusive [increasing]
COc1cc2c(cc1OC)C(C(=O)Nc1ccc3c(c1)OCCO3)C1c3ccccc3CCN1C2=O (stereo unspecified)	inactive: > 57 µM
c1ccc2c(c1)CCN(c1ncnc3c1[nH]c1ccccc13)C2	inconclusive [decreasing]
O=C(CC(Nc1ccc(F)cc1)C(=O)O)c1ccccc1 (stereo unspecified)	inconclusive [decreasing]
O=c1/c(=C\c2ccc3c(c2)OCO3)sc2n1CCCN=2	inconclusive [decreasing]
CCN(CC)c1ccc(NC(=O)Nc2cccc(C(C)=O)c2)cc1	active: 9 µM
O=C(Nc1ccc(N2CCN(C(=O)c3ccc(Cl)cc3)CC2)cc1)c1ccc(Br)o1	inconclusive [increasing]
COc1ccc(-c2cc(=O)oc3c(C)c(OCc4nn[nH]n4)ccc23)cc1	inconclusive [decreasing]
COc1cccc(C2=NOC(C(=O)Nc3cccnc3)C2)c1 (stereo unspecified)	inactive: > 57 µM
O=C(NC1CCCCC1)c1cnn2c(C(F)(F)F)cc(-c3ccco3)nc12	inactive: > 57 µM

Source: PubChem BioAssay AID361 (National Center for Advancing Translational Sciences (NCATS), 2006)
